Some of the results follow.
biological target: T1, OsWOX13 (Oryza sativa, UniProt Q5QMM3 1-267); assay: protein-binding microarray (RPBM); PBS, 2% BSA, 51.3 ng/ul salmon testes DNA, 50 uM zinc acetate, 200 nM TF, 25 C, 1 h; high values mean tight binding; conditions: protein: recombinant; tags: N-terminal polyhistidine and DsRed monomer fusion (pET32a); label: CyDye5-dUTP incorporated in the synthesized complementary strand; 3' TTTTT single-stranded linker to array surface; dsDNA, one strand shown
T1 sequence: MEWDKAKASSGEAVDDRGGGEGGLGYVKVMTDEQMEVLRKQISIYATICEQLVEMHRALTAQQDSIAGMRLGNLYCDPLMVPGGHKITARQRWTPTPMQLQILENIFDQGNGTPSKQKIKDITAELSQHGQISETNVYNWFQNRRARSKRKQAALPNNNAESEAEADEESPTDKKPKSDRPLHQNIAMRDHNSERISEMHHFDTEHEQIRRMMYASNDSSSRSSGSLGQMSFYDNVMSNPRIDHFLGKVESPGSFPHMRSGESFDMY
Summary of the method: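 Binding signal is defined as the fluorescence intensity of each feature in arbitrary units, read on an Axon 4000B scanner. Transcription factors with N-terminal polyhistidine and DsRed fusions came from E. coli BL21-CodonPlus and were purified on Ni–NTA. They were incubated at 200 nM for 1 h at 25 °C on a custom Agilent array that had been made double-stranded with Cy5-dUTP, with 50 µM zinc acetate present, and the array was washed.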

Sequence	binding signal
GTTGTCTAATTTGTGCATTAACCATGTTGTAATGGCATGACGGAGTCACCTAGTGCAG	24700 fluorescence intensity (a.u.)
GCATAGCTTGATTAACATAATTAGATGCAATGCATATAGGCGGAGTCACCTAGTGCAG	25000 fluorescence intensity (a.u.)
GTTGAGTAATAAAATGCAATTATTGGTTATTTTGCAAAGTCGGAGTCACCTAGTGCAG	4310 fluorescence intensity (a.u.)
TTAGATTGGCTATAAATGAATTGTAGCAAGGCTATACCGTCGGAGTCACCTAGTGCAG	49800 fluorescence intensity (a.u.)
CGGATATATAATAAGGAGCTAATTAGCGCACTAATTTCTCCGGAGTCACCTAGTGCAG	10700 fluorescence intensity (a.u.)
CCCTAATTTATACTCTAAGATACCGATGATGAAAGATGAGCGGAGTCACCTAGTGCAG	21100 fluorescence intensity (a.u.)
ATTCAGTGTAATGAAGATCAATAAAACAAATAATTTTATGCGGAGTCACCTAGTGCAG	15100 fluorescence intensity (a.u.)
ACTCAATTATCACCTCATTTTACATATCTTATTAATTTTACGGAGTCACCTAGTGCAG	5700 fluorescence intensity (a.u.)
GCACCCTACTAAACAAGTGATTAGCCCAGCTAATTGCTGGCGGAGTCACCTAGTGCAG	7800 fluorescence intensity (a.u.)
ATGAAATATGTAACAGATTATGACTTGGGTATTACGTTTCCGGAGTCACCTAGTGCAG	5920 fluorescence intensity (a.u.)
CAAAATTGGAGGCGCGATTCTGTATCACTAATAATTCAGCCGGAGTCACCTAGTGCAG	5950 fluorescence intensity (a.u.)
AATGATTGTCGAATAAGATGGGACTAATATTAATGTTAGTCGGAGTCACCTAGTGCAG	31800 fluorescence intensity (a.u.)
ACTGCCAATCATATATATAGTTTATACTTATTCAAAACAACGGAGTCACCTAGTGCAG	12900 fluorescence intensity (a.u.)
CACACGATTAATTTAAGTATTAATTACTTAAAACTTAAAACGGAGTCACCTAGTGCAG	17700 fluorescence intensity (a.u.)
GAGCAGTTAATCTTTAATTAATCATGTGCTAATAAGCTTTCGGAGTCACCTAGTGCAG	8720 fluorescence intensity (a.u.)
TAGGCCCACTAATTAGGCCCATCCAACACGCCGTCCGACGCGGAGTCACCTAGTGCAG	4020 fluorescence intensity (a.u.)
ATTCAAATTTGTTATTACTAAAGCTTCCTGGTTTCATGCCCGGAGTCACCTAGTGCAG	11700 fluorescence intensity (a.u.)
GGAGGTAATTTTCAAATTTGCCGGTTTAGTTCTCGAAGATCGGAGTCACCTAGTGCAG	7790 fluorescence intensity (a.u.)
CCAATATGTCTTGAGATTGATGAAGTTATTACAGGTGCTTCGGAGTCACCTAGTGCAG	6720 fluorescence intensity (a.u.)
TAACAAATTAATTTTGTCCATGCATGAACAAACCAGAATGCGGAGTCACCTAGTGCAG	23700 fluorescence intensity (a.u.)
TTAGATTGAGAAGACTATGGCTCCTCAGTTCTCAACATGTCGGAGTCACCTAGTGCAG	40800 fluorescence intensity (a.u.)

Sequence	binding signal
CATATACTTAATTGTTACTGATATAGTGTGATTTGGTGCACGGAGTCACCTAGTGCAG	26700 fluorescence intensity (a.u.)
TCTCCTCCATCTCCTCGCTTCGTCCCGTTCACACCACCACCGGAGTCACCTAGTGCAG	4880 fluorescence intensity (a.u.)
CGACTTGTAGATAGATAGATAGATAGATAGAAATAGAACGCGGAGTCACCTAGTGCAG	13700 fluorescence intensity (a.u.)
ATAAATAATTTGCTGACTGGATTGCCACGCGTACGCCACGCGGAGTCACCTAGTGCAG	19900 fluorescence intensity (a.u.)
GTCTATCAATCTGCATTTGACTAGCTTGCAGCTAGCACTTCGGAGTCACCTAGTGCAG	10900 fluorescence intensity (a.u.)
ACGGAATTCGTCTAAAATTAATTGATTTCTACAGATTTCGCGGAGTCACCTAGTGCAG	27100 fluorescence intensity (a.u.)
AATAATCTAGTGATGATGATGAATCTAACATCATCTAGAGCGGAGTCACCTAGTGCAG	4080 fluorescence intensity (a.u.)
ACTGATTAGTGTCAATACGCATCTATCCAAACGTAAAAGCCGGAGTCACCTAGTGCAG	38600 fluorescence intensity (a.u.)
TAACTGATGATGAGAATGCTGAATTATTGATGCACCAACTCGGAGTCACCTAGTGCAG	5460 fluorescence intensity (a.u.)
ATTAATCCATAATTAGAGAATGTTTACTGTAGCATCACATCGGAGTCACCTAGTGCAG	11400 fluorescence intensity (a.u.)
AGTAAACAGGTGATGAAATCAATATTATTGTGAAGCATAACGGAGTCACCTAGTGCAG	3450 fluorescence intensity (a.u.)
TGCATTAACATGATTTTCTAAAGCAACTTTCGTATAGATTCGGAGTCACCTAGTGCAG	5700 fluorescence intensity (a.u.)
AACAAATTGGAGCAAGTAGTGACCAGCAACTCATTGATCACGGAGTCACCTAGTGCAG	8800 fluorescence intensity (a.u.)
CTTTCTTAATCTAATTTGTGTTTTCTTGACTGTCACGTGCCGGAGTCACCTAGTGCAG	11700 fluorescence intensity (a.u.)
CTCGTAATTAACTTTGATGGGAACTTGAAACAGATGCAAGCGGAGTCACCTAGTGCAG	44900 fluorescence intensity (a.u.)
CAACTAATCAGGCCCTAAAATAGACTAAAATAAACATTCACGGAGTCACCTAGTGCAG	13000 fluorescence intensity (a.u.)
ATATAACTAAAATTACATTTGTAAATTCAGTTGATATGACCGGAGTCACCTAGTGCAG	8700 fluorescence intensity (a.u.)
TAGAGATTGGATGTCCAGTTCTAACGTACGTTCAGTGTACCGGAGTCACCTAGTGCAG	8010 fluorescence intensity (a.u.)
GAGTAATTAAGGACGTCCATCCTACGATCTACGGCCTTGTCGGAGTCACCTAGTGCAG	5330 fluorescence intensity (a.u.)
GGTAGGGTGGGGATGGGGTGTGTGCTAGCAATCCCGGTGGCGGAGTCACCTAGTGCAG	3190 fluorescence intensity (a.u.)
GTGGTAAATTGAGGGAGTCAAAGTGATCTTATTCCTTTATCGGAGTCACCTAGTGCAG	5850 fluorescence intensity (a.u.)

— PMC7819943, “Rice protein-binding microarrays: a tool to detect cis-acting elements near promoter regions in rice”
